The source of these data is patent US9873709B2 (priority 2013, dated 2018).

As usually defined, the Ki is the equilibrium dissociation constant of an inhibitor or competing ligand from its target.

Molecules are shown by their SMILES.

The target in the first experiment is isolated recombinant JAK1 kinase domain (Homo sapiens (Human), UniProt P23458). To be noted: read-out: JAK1 Ki.
In the case of `CN(Cc1ccc2ncccc2c1)C(=O)c1ccc(Nc2nc3c(N4CCC(O)(c5ccc(Cl)cc5)CC4)cccn3n2)cc1` [Example 1-169, 4-[[8-[4-(4-chlorophenyl)-4-hydroxy-1-piperidyl]-[1,2,4]triazolo[1,5-a]pyridin-2-yl]amino]-N-methyl-N-(6-quinolylmethyl) benzamide], the inhibition constant Ki worked out at 6.7 nM.

The same experiment, now with this note: read-out: JAK1 Ki; isolated recombinant JAK1 kinase domain, 25 μM ATP.
As to `CN1CCN(C(=O)C2CN(C(=O)c3ccc(Nc4nc5c(N6CCC(O)(c7ccc(Cl)cc7)CC6)cccn5n4)cc3)C2)CC1` [Example 1-165, [4-[[8-[4-(4-chlorophenyl)-4-hydroxy-1-piperidyl]-[1,2,4]triazolo[1,5-a]pyridin-2-yl]amino]phenyl]-[3-(4-methylpiperazine-1-carbonyl)azetidin-1-yl]methanone], the Ki was determined as 0.88 nM.

For `CN(C)[C@H]1CCN(C(=O)c2ccc(Nc3nc4c(N5CCC(O)(c6ccc(Cl)cc6)CC5)cccn4n3)cc2)C1` [Example 1-166, [4-[[8-[4-(4-chlorophenyl)-4-hydroxy-1-piperidyl]-[1,2,4]triazolo[1,5-a]pyridin-2-yl]amino]phenyl]-[(3S)-3-(dimethylamino)pyrrolidin-1-yl]methanone], the inhibition constant Ki was found to be 2.13 nM.

For the compound `N#CCCN1CCN(C(=O)c2ccc(Nc3nc4c(N5CCC(O)(c6ccc(Cl)cc6)CC5)cccn4n3)cc2)CC1` [Example 1-167, 3-[4-[4-[[8-[4-(4-chlorophenyl)-4-hydroxy-1-piperidyl]-[1,2,4]triazolo[1,5-a]pyridin-2-yl]amino]benzoyl]piperazin-1-yl]propanenitrile], the inhibition constant (Ki) came to 1.79 nM.

In the case of `O=C(c1ccc(Nc2nc3c(N4CCC(O)(c5ccc(Cl)cc5)CC4)cccn3n2)cc1)N1CCN2CCCC2C1` (stereo not shown) [Example 1-168, 3,4,6,7,8,8a-hexahydro-1H-pyrrolo[1,2-a]pyrazin-2-yl-[4-[[8-[4-(4-chlorophenyl)-4-hydroxy-1-piperidyl]-[1,2,4]triazolo[1,5-a]pyridin-2-yl]amino]phenyl] methanone], the inhibition constant (Ki) was 2.75 nM.

Turning to `CN1CCCC(CN(C)C(=O)c2ccc(Nc3nc4c(N5CCC(O)(c6ccc(Cl)cc6)CC5)cccn4n3)cc2)C1` (stereo not shown) [Example 1-170, 4-[[8-[4-(4-chlorophenyl)-4-hydroxy-1-piperidyl]-[1,2,4]triazolo[1,5-a]pyridin-2-yl]amino]-N-methyl-N-[(1-methyl-3-piperidyl)methyl] benzamide], the Ki was 1.51 nM.

For `CN(C(=O)c1ccc(Nc2nc3c(N4CCC(O)(c5ccc(Cl)cc5)CC4)cccn3n2)cc1)C1CCN(Cc2ccccc2)C1` (stereo not shown) [Example 1-171, N-(1-benzylpyrrolidin-3-yl)-4-[[8-[4-(4-chlorophenyl)-4-hydroxy-1-piperidyl]-[1,2,4]triazolo[1,5-a]pyridin-2-yl]amino]-N-methyl-benzamide], the Ki was 14.3 nM.

As for `O=C(c1ccc(Nc2nc3c(N4CCC(O)(c5ccc(Cl)cc5)CC4)cccn3n2)cc1)N1CCN(CC2CCCO2)CC1` (stereo not shown) [Example 1-172, [4-[[8-[4-(4-chlorophenyl)-4-hydroxy-1-piperidyl]-[1,2,4]triazolo[1,5-a]pyridin-2-yl]amino]phenyl]-[4-(tetrahydrofuran-2-ylmethyl)piperazin-1-yl]methanone], the inhibitory constant (Ki) stood at 3.03 nM.

Consider `O=C(NCCN1CCCCC1)c1ccc(Nc2nc3c(N4CCC(O)(c5ccc(Cl)cc5)CC4)cccn3n2)cc1` [Example 1-173, 4-[[8-[4-(4-chlorophenyl)-4-hydroxy-1-piperidyl]-[1,2,4]triazolo[1,5-a]pyridin-2-yl]amino]-N-[2-(1-piperidyl)ethyl]benzamide], for which the Ki was found to be 1.95 nM.

`CNC(=O)C1CN(C(C)C)CCN1C(=O)c1ccc(Nc2nc3c(N4CCC(O)(c5ccc(Cl)cc5)CC4)cccn3n2)cc1` (stereo not shown) [Example 1-174, 1-[4-[[8-[4-(4-chlorophenyl)-4-hydroxy-1-piperidyl]-[1,2,4]triazolo[1,5-a]pyridin-2-yl]amino]benzoyl]-4-isopropyl-N-methyl-piperazine-2-carboxamide]: the Ki turned out to be 2.41 nM.

With `CN1CCC(OC(=O)c2ccc(Nc3nc4c(N5CCC(O)(c6ccc(Cl)cc6)CC5)cccn4n3)cc2)CC1` [Example 1-178, (1-methyl-4-piperidyl) 4-[[8-[4-(4-chlorophenyl)-4-hydroxy-1-piperidyl]-[1,2,4]triazolo[1,5-a]pyridin-2-yl]amino]benzoate], the Ki was 1.15 nM.

Consider `O=C(NC1CCCNC1)c1ccc(Nc2nc3c(N4CCC(O)(c5ccc(Cl)cc5)CC4)cccn3n2)cc1` (stereo not shown) [Example 1-179, 4-[[8-[4-(4-chlorophenyl)-4-hydroxy-1-piperidyl]-[1,2,4]triazolo[1,5-a]pyridin-2-yl]amino]-N-(3-piperidyl)benzamide], for which the Ki is 1.69 nM.

Regarding `O=C(NCC1CCNC1)c1ccc(Nc2nc3c(N4CCC(O)(c5ccc(Cl)cc5)CC4)cccn3n2)cc1` (stereo not shown) [Example 1-180, 4-[[8-[4-(4-chlorophenyl)-4-hydroxy-1-piperidyl]-[1,2,4]triazolo[1,5-a]pyridin-2-yl]amino]-N-(pyrrolidin-3-ylmethyl)benzamide], the Ki amounted to 1.64 nM.

For the compound `O=C(NCC1CCCN1)c1ccc(Nc2nc3c(N4CCC(O)(c5ccc(Cl)cc5)CC4)cccn3n2)cc1` (stereo not shown) [Example 1-182, 4-[[8-[4-(4-chlorophenyl)-4-hydroxy-1-piperidyl]-[1,2,4]triazolo[1,5-a]pyridin-2-yl]amino]-N-(pyrrolidin-2-ylmethyl)benzamide], the Ki amounted to 2.59 nM.

Regarding `O=C(NCC1CCCNC1)c1ccc(Nc2nc3c(N4CCC(O)(c5ccc(Cl)cc5)CC4)cccn3n2)cc1` (stereo not shown) [Example 1-183, 4-[[8-[4-(4-chlorophenyl)-4-hydroxy-1-piperidyl]-[1,2,4]triazolo[1,5-a]pyridin-2-yl]amino]-N-(3-piperidylmethyl) benzamide], the Ki was determined as 1.77 nM.

For `O=C(NCC1CCNCC1)c1ccc(Nc2nc3c(N4CCC(O)(c5ccc(Cl)cc5)CC4)cccn3n2)cc1` [Example 1-184, 4-[[8-[4-(4-chlorophenyl)-4-hydroxy-1-piperidyl]-[1,2,4]triazolo[1,5-a]pyridin-2-yl]amino]-N-(4-piperidylmethyl)], the Ki amounted to 1.15 nM.

Consider `O=C(NCC1CCCCN1)c1ccc(Nc2nc3c(N4CCC(O)(c5ccc(Cl)cc5)CC4)cccn3n2)cc1` (stereo not shown) [Example 1-185], for which the Ki came to 2.18 nM.

Turning to `O=C(NCCN1CCNCC1)c1ccc(Nc2nc3c(N4CCC(O)(c5ccc(Cl)cc5)CC4)cccn3n2)cc1` [Example 1-187], the Ki came out at 1.47 nM.

As for `O=C(NCC1CNCCO1)c1ccc(Nc2nc3c(N4CCC(O)(c5ccc(Cl)cc5)CC4)cccn3n2)cc1` (stereo not shown) [Example 1-188, 4-[[8-[4-(4-chlorophenyl)-4-hydroxy-1-piperidyl]-[1,2,4]triazolo[1,5-a]pyridin-2-yl]amino]-N-(morpholin-2-ylmethyl)benzamide], the Ki worked out at 1.35 nM.

As to `NCC1CCN(C(=O)c2ccc(Nc3nc4c(N5CCC(O)(c6ccc(Cl)cc6)CC5)cccn4n3)cc2)CC1` [Example 1-193, [4-(aminomethyl)-1-piperidyl]-[4-[[8-[4-(4-chlorophenyl)-4-hydroxy-1-piperidyl]-[1,2,4]triazolo[1,5-a]pyridin-2-yl]amino]phenyl] methanone], the Ki is 1.95 nM.

Regarding `CN(CCN)C(=O)c1ccc(Nc2nc3c(N4CCC(O)(c5ccc(Cl)cc5)CC4)cccn3n2)cc1` [Example 1-194, N-(2-aminoethyl)-4-[[8-[4-(4-chlorophenyl)-4-hydroxy-1-piperidyl]-[1,2,4]triazolo[1,5-a]pyridin-2-yl]amino]-N-methyl-benzamide], the Ki was found to be 3.52 nM.

In the case of `NCC1CCCN1C(=O)c1ccc(Nc2nc3c(N4CCC(O)(c5ccc(Cl)cc5)CC4)cccn3n2)cc1` (stereo not shown) [Example 1-195, [2-(aminomethyl)pyrrolidin-1-yl]-[4-[[8-[4-(4-chlorophenyl)-4-hydroxy-1-piperidyl]-[1,2,4]triazolo[1,5-a]pyridin-2-yl]amino]phenyl] methanone], the Ki is 3.74 nM.

For `O=C(c1ccc(Nc2nc3c(N4CCC(O)(c5ccc(Cl)cc5)CC4)cccn3n2)cc1)N1CCNCC1CO` (stereo not shown) [Example 1-196, [4-[[8-[4-(4-chlorophenyl)-4-hydroxy-1-piperidyl]-[1,2,4]triazolo[1,5-a]pyridin-2-yl]amino]phenyl]-[2-(hydroxymethyl)piperazin-1-yl]methanone], the Ki came out at 1.64 nM.

`O=C(c1ccc(Nc2nc3c(N4CCC(O)(c5ccc(Cl)cc5)CC4)cccn3n2)cc1)N1CC2CNCC2C1` (stereo not shown) [Example 1-197, 2,3,3a,4,6,6a-hexahydro-1H-pyrrolo[3,4-c]pyrrol-5-yl-[4-[[8-[4-(4-chlorophenyl)-4-hydroxy-1-piperidyl]-[1,2,4]triazolo[1,5-a]pyridin-2-yl]amino]phenyl] methanone]: the Ki stood at 1.63 nM.

For `O=C(N[C@H]1CCCNC1)c1ccc(Nc2nc3c(N4CCC(O)(c5ccc(Cl)cc5)CC4)cccn3n2)cc1` [Example 1-198, 4-[[8-[4-(4-chlorophenyl)-4-hydroxy-1-piperidyl]-[1,2,4]triazolo[1,5-a]pyridin-2-yl]amino]-N-[(3S)-3-piperidyl]benzamide], the Ki worked out at 1.57 nM.

As to `O=C(c1ccc(Nc2nc3c(N4CCC(O)(c5ccc(Cl)cc5)CC4)cccn3n2)cc1)N1CC2(CCNCC2)C1` [Example 1-199, [4-[[8-[4-(4-chlorophenyl)-4-hydroxy-1-piperidyl]-[1,2,4]triazolo[1,5-a]pyridin-2-yl]amino]phenyl]-(2,7-diazaspiro[3.5]nonan-2-yl)methanone], the inhibition constant (Ki) came to 0.66 nM.

For `CC1CN(C(=O)c2ccc(Nc3nc4c(N5CCC(O)(c6ccc(Cl)cc6)CC5)cccn4n3)cc2)CCN1` (stereo not shown) [Example 1-200, [4-[[8-[4-(4-chlorophenyl)-4-hydroxy-1-piperidyl]-[1,2,4]triazolo[1,5-a]pyridin-2-yl]amino]phenyl]-(3-methylpiperazin-1-yl)methanone], the inhibitory constant (Ki) stood at 3.6 nM.

Turning to `O=C(c1ccc(Nc2nc3c(N4CCC(O)(c5ccc(Cl)cc5)CC4)cccn3n2)cc1)N1CCC2(CC1)CNC2` [Example 1-201, [4-[[8-[4-(4-chlorophenyl)-4-hydroxy-1-piperidyl]-[1,2,4]triazolo[1,5-a]pyridin-2-yl]amino]phenyl]-(2,7-diazaspiro[3.5]nonan-7-yl)methanone], the Ki came to 2.54 nM.
